Data taken from PubChem BioAssay (NCATS).
Several values for one entry are separate records, joined by “and”; a condition that tells them apart may be missing. Equal values may be shown once. The inconclusive results got no clear call from the source; some entries with a clear call stand among them for comparison. For part of these data: Potencies beside an inconclusive call are fits to weak or partial responses and may not hold up. Activity calls are given as the source filed them. Calls come from the whole dose curve; as a rule, active = well fitted curve in the direction sought with a large enough effect; inconclusive = small, poorly fitted or top-dose-only effect, or another doubt; inactive = no such curve, though single readings can be large; an effect the other way counts as inactive or inconclusive.

What was measured:
[1] = Viability qHTS for spleen associated tyrosine kinase inhibitor (SYKi) naive MV4-11 cells (AID 1963823); details: MV4-11 AML viability, CellTiter-Glo luminescence, 72 h; series mostly up to 45 µM; note: nearly all actives have a fitted effect of over 40% in size
Summary of the method: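 Read-out: CellTiter-Glo luminescence. Exposure: 72 hr, 37 C, 5% CO2, 95% humidity. Cells: MV4-11 without SYK inhibitor history, 500/well, qHTS format.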

[2] = Viability qHTS for spleen associated tyrosine kinase inhibitor (SYKi) drug resistant MV4-11 cells (AID 1963824); note: nearly all actives have a fitted effect of over 35% in size
Summary of the method: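 SYK-inhibitor-resistant MV4-11 AML cells were seeded at 500 per well onto compound and cultured 72 hours (37 °C, 5% CO2). CellTiter-Glo was then added, and after 10 min at room temperature, luminescence gave viability.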

[3] = Quantitative highthroughput screen to assess conditional lethalithy of NOMO1 cells grown in RPMI1640 with untreated serum (RPMI+s) (AID 1963876); details: NOMO1 AML cells in RPMI+serum, CellTiter-Glo viability, 48 h; viability: at 45.8 µM (top of the series); note: nearly all actives have a fitted effect of over 35% in size
Summary of the method: (§1)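 Each medium arm—HPLM with 10% dialyzed FBS, or RPMI1640 with 5 mM glucose and 10% untreated or dialyzed FBS—was screened against an 11-point, 3-fold compound titration for 48 h at 37 °C, with CellTiter-Glo luminescence as endpoint.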

[4] = Quantitative highthroughput screen to assess conditional lethalithy of NOMO1 cells grown in RPMI1640 with dialyzed fetal bovine serum (RPMI+ds) (AID 1963877); note: nearly all actives have a fitted effect of over 30% in size
Summary of the method: as §1

[5] = Quantitative highthroughput screen to assess conditional lethalithy of P12 Ichikawa cells grown in Human Plasma-Like Medium with dialyzed fetal bovine serum (HPLM+ds) (AID 1963879); details: Potency: viability; note: nearly all actives have a fitted effect of over 35% in size
Summary of the method: as §1

[6] = Quantitative highthroughput screen to assess conditional lethalithy of P12 Ichikawa cells grown in RPMI1640 with dialyzed fetal bovine serum (RPMI+ds) (AID 1963880); details: Potency: P12-Ichikawa viability; note: nearly all actives have a fitted effect of over 35% in size
Summary of the method: as §1

[7] = Quantitative highthroughput screen to assess conditional lethalithy of SEM cells grown in Human Plasma-Like Medium with dialyzed fetal bovine serum (HPLM+ds) (AID 1963882); note: nearly all actives have a fitted effect of over 35% in size
Summary of the method: as §1

[8] = Quantitative highthroughput screen to assess conditional lethalithy of SEM cells grown in RPMI1640 with unreated serum (RPMI+s) (AID 1963883); details: SEM B-ALL cells, CellTiter-Glo viability, 48 h; viability: at 45.8 µM (top of the series); note: nearly all actives have a fitted effect of over 35% in size
Summary of the method: as §1

[9] = Quantitative highthroughput screen to assess conditional lethalithy of SEM cells grown in RPMI1640 with dialyzed fetal bovine serum (RPMI+ds) (AID 1963884); details: SEM B-ALL cells, RPMI+dialyzed FBS, CellTiter-Glo viability, 48 h; viability: at 45.8 µM (top of the series); note: nearly all actives have a fitted effect of over 35% in size
Summary of the method: as §1

[10] = Quantitative highthroughput screen to assess conditional lethalithy of P12 Ichikawa cells grown in RPMI1640 with untreated serum (RPMI+s) (AID 1963881); details: Potency: viability; note: nearly all actives have a fitted effect of over 35% in size
Summary of the method: as §1

[11] = Cellular viability qHTS for adrenocortical cancer (ACC) cell line SW-13 (AID 1963989); details: SW-13 ACC cells viability, CellTiter-Glo, 48 h; activity (max response): stronger effect = lower value; note: nearly all actives have a fitted effect of over 65% in size
Summary of the method: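 IC50 and maximal-response values come from four-parameter logistic fits of titration data. SW-13 cells in serum-free medium received compounds (up to 46 uM final) for 48 h before CellTiter-Glo luminescence.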

[12] = Cellular viability qHTS for adrenocortical cancer (ACC) cell line NCI-H295R (AID 1963990); details: CellTiter-Glo ATP luminescence, 48 h; series mostly up to 46.1 µM; note: nearly all actives have a fitted effect of over 60% in size
Summary of the method: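 Adrenocortical carcinoma cells, suspended at 300 000 cells/mL in serum-free DMEM plus ITS, rested overnight before pin transfer of compound. After two days' incubation, ATP-dependent luminescence was recorded and curve-fitted.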
Potency is the fitted concentration of half-maximal effect; tags give direction and shape of the fitted curve.

Row | Compound | Potency [1] | Potency [2] | Potency [3] | Potency [4] | Potency [5] | Potency [6] | Potency [7] | Potency [8] | Potency [9] | Potency [10] | Potency [11] | Potency [12]
1 | OC(CN1CCN(c2cccc(Cl)c2)CC1)C(c1ccccc1)c1ccccc1 (stereo not drawn) | inconclusive: 20.6 µM [cytotoxic, single point] | inconclusive: 20.6 µM [cytotoxic, partial curve] | active: 935 nM | active: 1050 nM | active: 132 nM | active: 743 nM | active: 833 nM | active: 148 nM | active: 166 nM | – | – | –
2 | C[C@@H]1CCO[C@H]2Cn3cc(C(=O)NCc4ccc(F)cc4F)c(=O)c(O)c3C(=O)N12 | inconclusive: 9.2 µM [cytotoxic, partial curve] | inconclusive: 10.3 µM [cytotoxic, partial curve] | inactive | inactive | – | inactive | inactive | inactive | – | – | – | –
3 | CN1CCN(Cc2ccc(NC(=O)Nc3ccc(Oc4cc(NC(=O)C5CC5)ncn4)cc3)cc2C(F)(F)F)CC1 | inactive and inconclusive: 1.7 nM [cytotoxic, full curve, poor fit] | inactive and inconclusive: 1.9 nM [cytotoxic, full curve] | active: 418 nM | active: 418 nM | – | active: 418 nM | active: 20.9 nM | – | active: 8.3 nM | active: 469 nM | – | –
4 | OCCC#Cc1nc(-c2ccc(F)cc2)c(-c2ccncc2)n1CCCc1ccccc1 | active: 20.6 µM and inconclusive: 18.6 µM [cytotoxic, partial curve] | active: 10.3 µM and active: 11.8 µM | inactive | inactive | inactive | – | – | inactive | – | inconclusive: 37200 nM [cytotoxic, partial curve, poor fit] | inconclusive: 28200 nM [cytotoxic, single point] | inconclusive: 22400 nM [cytotoxic, partial curve]
